Reference: publication PMC4336329 (PLoS ONE, 2015)
About 14,000 (4.5%) of roughly 310,000 compounds showed an effect of 50% or more. Effects have a minus sign here. The list shows a part of the results.

Target: human ether-à-go-go-related gene (hERG) potassium channel (human, UniProt Q12809)
Assay: primary screen, population patch clamp on CHO cells stably expressing hERG
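Note: peak tail current of the secondary pulse compared with the same well before compound.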

human ether-à-go-go-related gene (hERG) potassium channel, sequence (Q12809 whole entry, looked up): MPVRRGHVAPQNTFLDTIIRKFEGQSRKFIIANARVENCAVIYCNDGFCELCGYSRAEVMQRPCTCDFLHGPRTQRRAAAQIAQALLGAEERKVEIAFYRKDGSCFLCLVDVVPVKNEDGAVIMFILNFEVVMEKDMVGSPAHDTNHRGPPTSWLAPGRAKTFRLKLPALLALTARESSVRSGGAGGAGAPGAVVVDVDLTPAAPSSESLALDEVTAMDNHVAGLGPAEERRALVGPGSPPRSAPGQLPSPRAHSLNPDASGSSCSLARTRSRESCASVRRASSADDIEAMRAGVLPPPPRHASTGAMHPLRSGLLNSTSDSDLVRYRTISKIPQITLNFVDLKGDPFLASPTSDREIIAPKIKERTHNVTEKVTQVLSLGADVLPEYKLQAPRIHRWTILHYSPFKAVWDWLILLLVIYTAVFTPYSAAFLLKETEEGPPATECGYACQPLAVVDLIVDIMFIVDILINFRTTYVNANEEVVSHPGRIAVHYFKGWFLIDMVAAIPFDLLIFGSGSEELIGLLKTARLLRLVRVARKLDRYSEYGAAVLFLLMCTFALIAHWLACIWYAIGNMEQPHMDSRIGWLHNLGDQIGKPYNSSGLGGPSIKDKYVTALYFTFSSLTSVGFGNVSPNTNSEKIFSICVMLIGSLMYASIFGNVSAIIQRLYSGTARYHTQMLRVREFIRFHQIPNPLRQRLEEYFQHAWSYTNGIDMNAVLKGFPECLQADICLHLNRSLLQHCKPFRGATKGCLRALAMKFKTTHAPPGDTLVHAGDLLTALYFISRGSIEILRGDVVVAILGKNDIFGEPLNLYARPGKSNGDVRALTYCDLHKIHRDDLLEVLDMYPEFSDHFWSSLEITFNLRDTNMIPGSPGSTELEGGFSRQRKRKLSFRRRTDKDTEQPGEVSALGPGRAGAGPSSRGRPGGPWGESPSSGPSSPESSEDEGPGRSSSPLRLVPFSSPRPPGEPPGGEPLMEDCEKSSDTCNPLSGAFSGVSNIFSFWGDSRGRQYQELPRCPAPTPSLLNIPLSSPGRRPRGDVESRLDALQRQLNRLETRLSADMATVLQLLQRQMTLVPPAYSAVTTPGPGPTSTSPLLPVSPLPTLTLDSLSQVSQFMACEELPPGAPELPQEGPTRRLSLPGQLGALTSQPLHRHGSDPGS

| SMILES | hERG current change (%, negative = inhibition) at 10uM |
| --- | --- |
| Cc1nn(CC(=O)NCCN2CCOCC2)c(C)c1[N+](=O)[O-] | 34.8% |
| Cc1cc(C2C(C#N)=C(N)OC3=C2C(=O)CCC3)c(C)s1 (centres unmarked) | -9.38% |
| O=C(COC(=O)c1ccc(S(=O)(=O)N2CCc3ccccc3C2)cc1)NC(=O)NCc1ccco1 | 13.5% |
| O=C(O)CCN1C(=O)C2C3CC(C2C1=O)C1C(c2ccccc2)c2sc(=O)n(-c4ccccc4)c2SC31 (centres unmarked) | 10.7% |
| COc1ccc(CN(C)C(=O)c2[nH]c(C)c(C(C)=O)c2C)cc1F | 5.77% |
| O=C(Nc1ccc(N2CCOCC2)cc1)c1cccc(S(=O)(=O)N2CCCCCC2)c1 | 14.3% |
| CC(=O)C[C@@H](O)CC(=O)[C@H]1OC(=O)CCCCCCc2ccccc21 | -2.65% |
| CS(=O)(=O)c1nc2ccccc2n1Cc1ccccc1 | -11.8% |
| O=C(Cn1c2ccc(F)cc2c2nc3n(c(=O)c21)CCS3)NC1CCCC1 | 4.11% |
| CC(=O)Nc1ccc(Nc2ncc([N+](=O)[O-])c(Nc3ccc(NC(C)=O)cc3)n2)cc1 | 1.84% |
| CCC[N+]1(CC#CC2(O)CCCCC2)CCOCC1.[I-] | 20.9% |
| N#Cc1ccccc1NS(=O)(=O)c1cc2c3c(c1)CCN3C(=O)CC2 | 11.3% |
| S=c1[nH]nc(COc2ccccc2)n1/N=C/C(Cl)=C/c1ccccc1 | 7.14% |
| COc1cccc(NC(=S)N2CCCC2)c1 | 10.4% |
| Cc1ccc(NC(=O)CN(C)C(=O)C2COc3ccccc3O2)cc1 (centres unmarked) | 14.2% |
| CCc1nnc(NC(=O)CSc2nnc(CNc3ccc(Cl)cc3)o2)s1 | -7.28% |
| O=C1CN(C(=O)c2ccco2)c2ccccc2N1 | 3.05% |
| CCCc1ccc(C(=O)O/N=C(\N)c2ccccn2)cc1 | -0.642% |
| COc1ccc(-c2csc(/C=C/c3ccc4c(c3)OCO4)n2)cc1OC | 7.5% |

| SMILES | hERG current change (%, negative = inhibition) at 10uM |
| --- | --- |
| CCOc1ccc(-c2c(C)sc3nc[nH]c(=O)c23)cc1 | 19% |
| Cl.N=c1n(CCO)c2ccccc2n1CCOc1ccc(Cl)cc1Cl | -63.8% |
| O=C(NC1CCCCC1)C(c1ccncc1)N(Cc1ccc2c(c1)OCO2)C(=O)c1cnsn1 (centres unmarked) | -10.8% |
| Cc1cc(C)cc(N2C(=O)CC(Cn3nc(C)cc3C)C2=O)c1 (centres unmarked) | 12.1% |
| Fc1ccc(NC(=S)NCc2cccs2)cc1 | 2.45% |
| O=S(=O)(c1cccc(-c2nnc3n2CCCCC3)c1)N1CCOCC1 | -29.5% |
| CCOC(=O)CSc1nnc(CNC(=O)c2cccs2)n1-c1ccccc1 | -5.51% |
| CCCCCCCN1C(Nc2ccccc2)=NC[C@@H]1Cc1ccccc1 | -83.3% |
| CC(C)CN(C(=O)COC(=O)C(C)N1C(=O)c2ccccc2C1=O)c1c(N)n(Cc2ccccc2)c(=O)[nH]c1=O (centres unmarked) | -7.78% |
| CCOC(=O)c1cc(S(=O)(=O)NCc2ccco2)cn1C | 0.219% |
| C/C(=N\Nc1nc2ccccc2s1)c1ccc2c(c1)OCO2 | 32.4% |
| CCCCCOC(=O)C1[C@H]2C(=O)N(Cc3cccs3)C[C@]23C=C[C@H]1O3 (some centres unmarked) | 1.95% |
| Cc1ccc([N+](=O)[O-])cc1NC(=O)CN1CCC(C)CC1 | -1.56% |
| COCCNC(=S)N1CCN(c2cccc(C)c2C)CC1 | 7.38% |
| O=S(=O)(Nc1cccnc1)c1ccc(F)cc1 | 16.6% |
| O=C(O)/C=C/C(=O)Nc1ccc(OC(F)F)cc1 | 20.8% |
| O=C(NCCN1CCOCC1)c1ccc2c(c1)N(Cc1ccccc1F)C(=O)c1ccccc1S2 | -27% |
| Cc1ccc(/C=C2/SC(=S)N(c3ccc(S(=O)(=O)Nc4nccs4)cc3)C2=O)cc1 | 6.74% |
| Cc1cc(C)c(NC(=O)CSc2nnc(-c3ccncc3)n2Cc2ccco2)c(C)c1 | -31.6% |

| SMILES | hERG current change (%, negative = inhibition) at 10uM |
| --- | --- |
| Cc1ccccc1C1C(C#N)=C2NC(=O)c3c(sc4c3CCCCC4)N2C2=C1C(=O)CC(C)(C)C2 (centres unmarked) | 14.5% |
| CCOc1cc(/C=C/c2cc(C(F)(F)F)[nH]c(=O)n2)ccc1O | 16.7% |
| COc1ccccc1N1CCN(Cc2cc(C)c(C)cc2O)CC1 | -37.1% |
| Cc1cccc(C)c1NC(=S)N(Cc1cccnc1)Cc1ccccc1Cl | -19.3% |
| Cc1nnc(Nc2ccc(F)cc2)c2ccccc12 | -42% |
| COc1ccc(-c2cc3cc(-c4cc(OC)c(OC)c(OC)c4)ccc3o2)cc1 | -0.134% |
| Cn1c(CSc2nc3ccccc3n2C)nc2ccccc21 | -5.21% |
| C#CCn1cnc2c(cnn2-c2ccc(C)c(C)c2)c1=O | 3.21% |
| Cc1ccc(-c2cc(C(F)F)nc(NCc3cccnc3)n2)cc1 | 8.36% |
| Cc1nn(C(C)C(=O)NNC(=S)Nc2ccc(Cl)cc2)c(C)c1[N+](=O)[O-] (centres unmarked) | 14.5% |
| COc1ccc(-c2nc(C#N)c(NCCCN3CCOCC3)o2)cc1 | -13% |
| Cc1cccc(NC(=O)c2nc[nH]c2C(=O)NCc2ccccc2)c1 | 11.6% |
| CSc1nc2nc3c(c(=O)n2[nH]1)CN(Cc1ccccc1)CC3 | -20.5% |
| CC(=O)O[C@H]1[C@H]2O[C@]23[C@@H]2CC[C@]4(O)C[C@@H](O)CC[C@]4(C)C2CC[C@]3(C)[C@H]1c1ccc(=O)oc1 (some centres unmarked) | -8.54% |
| NS(=O)(=O)c1cnccc1Nc1ccc(Cl)c(Cl)c1 | -19% |
| CC1(C)CC(=O)CC(=NCC(=O)O)C1 | -1.91% |
| O=P(c1ccccc1)(c1ccccc1)c1nc(-c2ccccc2)oc1N1CCOCC1 | -20.5% |
| CCc1nnc(NC(=O)CCC2CCCCC2)s1 | 1.92% |
